Laboratory results published in ChEMBL document CHEMBL1201862, “PubChem BioAssay data set” (2004).

Tested on: NCI-H322M
Experiment: inhibition of tumour cell growth, NCI panel, 48 h

Row | SMILES | GI50
1 | CCOC(=O)C(C)c1c(C(=O)c2ccc(C)nc2)c2ccccc2n1C (stereo not drawn) | inactive: > 100 µM
2 | Cc1ccc(S(=O)ON2CCC(C(=O)O)(c3ccccc3)CC2)cc1 (stereo not drawn) | inactive: > 100 µM
3 | C=C1c2nc3ccccc3n2C=C(c2ccc(C)cc2)N1c1ccccc1 | inactive: 6.44 µM
4 | O=C(O)[C@H](NS(=O)(=O)c1ccc([N+](=O)[O-])cc1)c1ccccc1 | inactive: > 100 µM
5 | CC(=O)OCC1OC(SC2=NC(=O)CS2)C(OC(C)=O)C(OC(C)=O)C1OC(C)=O (stereo not drawn) | inactive: > 100 µM
6 | Cc1nn(CN2CCN(C)CC2)c(=S)n1/N=C/c1ccc(-c2ccc(Cl)cc2Cl)o1 | inactive: > 100 µM
7 | O=C(O)c1nn[nH]c1Cl | inactive: > 100 µM
8 | O=C(c1cc(=O)c2ccc(O)cc2o1)c1ccc(Cl)cc1Cl | inactive: 14.8 µM
9 | CNC(=O)SCC(NC(=O)CCC(N)C(=O)O)C(=O)NCC(=O)O (stereo not drawn) | inactive: > 100 µM
10 | NC(CCc1ccccc1)(C(=O)O)c1ccccc1 (stereo not drawn) | inactive: > 100 µM
11 | Clc1ccccc1/C=C/c1nsc(/C=C/c2ccccc2Cl)n1 | inactive: > 100 µM
12 | O=CN1CCN(C(=O)c2ccc(Cl)cc2)C1=S | inactive: 15.8 µM
13 | CC(=O)OCC1OC(n2c(N)c(C#N)c(-c3ccccc3)c(C#N)c2=S)C(OC(C)=O)C(OC(C)=O)C1OC(C)=O (stereo not drawn) | inactive: > 100 µM
14 | O=C(Cc1nc2ccc(C(=O)c3ccccc3)cc2nc1O)C(=O)Nc1ccc(C(F)(F)F)cc1[N+](=O)[O-] | inactive: > 100 µM
15 | O=C(c1ccccc1)c1sc2c(=O)c(C(=O)c3ccccc3)c(C(=O)c3ccccc3)sc2c(=O)c1C(=O)c1ccccc1 | inactive: 79.6 µM
16 | COc1cc2cc[n+]3c(C)c4cc(OC)c(OC)cc4c([O-])c3c2cc1OC | inactive: > 100 µM
17 | C/C=C/C(C#N)O[Si](C)(C)C (stereo not drawn) | inactive: > 100 µM
18 | CN1CCc2c1nc(-c1cccnc1)c1c2N(C)CC1 | inactive: > 100 µM
19 | Cn1c(Nc2ccccc2)c(/C=N\c2ccccc2)c(=O)n(C)c1=O | inactive: > 100 µM
20 | C=CCCCN1CCCC(C)C1=S (stereo not drawn) | inactive: > 100 µM
21 | Cc1cc(S(=O)(=O)[N-]/C(=N/S(=O)(=O)c2cc(Cl)sc2Cl)[n+]2ccc(N(C)C)cc2)c(S)cc1Cl | inactive: 45 µM
22 | O=C1N/C(=N\N=C\c2ccccc2)C(c2ccccc2)O1 (stereo not drawn) | inactive: 60.3 µM

Row | SMILES | GI50
23 | C/C(=N\NC(=S)N(C)C)c1ncc[nH]1 | inactive: 5.24 µM
24 | C/C(=C1/N=C(c2ccccc2)OC1=O)c1ccccc1 | inactive: 45.2 µM
25 | COC1=CC(=O)C2=C(C[C@@]3(C)C(=C2)C(CO)=CC[C@H]3O)C1=O | inactive: > 100 µM
26 | Cc1cc(N(CCC#N)S(=O)(=O)c2ccccc2)ccc1/C=N/c1ccc(C(=O)O)cc1 | inactive: > 40.2 µM
27 | Cc1ccc(S(=O)(=O)c2[nH]cc(/C(=C\C3CCCCC3)[N+](=O)[O-])c2C2CCCCC2)cc1 | inactive: 1.56 µM
28 | CC[C@H]1CN2CCc3cc(OC)c(OC)cc3[C@@H]2C[C@@H]1C[C@H]1NCCc2cc(O)c(OC)cc21 | active: 0.538 µM
29 | CN1CCCOC(c2ccc([N+](=O)[O-])cc2)O1 (stereo not drawn) | inactive: > 100 µM
30 | COC(=O)c1ccc(C)cc1C1CN=NC12Cc1cc(C)c(C)cc1C2=O (stereo not drawn) | inactive: > 100 µM
31 | Cc1ccc([N+](=O)[O-])cc1S(=O)(=O)Nc1ccc(C2=NN(C(=O)c3ccccc3)C(c3ccccc3O)C2)cc1 (stereo not drawn) | inactive: 28.8 µM
32 | O=C1C(Cl)C(c2ccc([N+](=O)[O-])cc2)N1n1cnc2ccccc2c1=O (stereo not drawn) | inactive: 21.5 µM
33 | C=C1Oc2nc3ccccc3c(=O)n2C1(C)C | inactive: > 100 µM
34 | O=C(c1cccc2ccccc12)N1CCC(C2CCN(C(=O)c3cccc4ccccc34)CC2)CC1 | inactive: > 100 µM
35 | CCNC(=S)NNC(=O)CSc1nc2ccc(I)cc2c(=O)n1Cc1ccccc1 | inactive: 33 µM
36 | O=C1/C(=C2/CCCN2)C(c2ccc[nH]2)=NN1c1ccccc1 | inactive: > 100 µM
37 | COC(=O)N1C=Cc2c(c(C)c3c([nH]c4ccccc43)c2C)C1C (stereo not drawn) | inactive: 16.9 µM
38 | Cc1cc(C)c2c(c1)CSCc1cc(C)cc(C)c1-2 | inactive: 54 µM
39 | S=C(N/N=C\c1ccccn1)N(Cc1ccccn1)Cc1ccccn1 | active: 0.962 µM
40 | O=c1oc2ccc(Cl)cc2cc1-c1cn2ccsc2n1 | inactive: 54.8 µM
41 | CC(C)(C)CC(C)(C)N/C(N)=N/O | inactive: > 100 µM
42 | CNC1=C(C)C(=O)C(C)=C(C(C)(C)CC(=O)n2cc(F)c(=O)[nH]c2=O)C1=O | inactive: 17.2 µM
43 | N#Cc1c(O)c(C=O)c(=O)n2c1[nH]c1ccccc12 | inactive: > 100 µM
44 | COc1cccc(/C=C2\N=C(Cl)OC2=O)c1O | inactive: > 100 µM

Row | SMILES | GI50
45 | O=C(NC1CCCCC1)NC12CC3CC(CC(F)(C3)C1)C2 | inactive: > 100 µM
46 | CC(C)(C)CC(C)(C)c1cc2c(O)c(c1)Cc1cc(C(C)(C)CC(C)(C)C)cc(c1O)Cc1cc(C(C)(C)CC(C)(C)C)cc(c1O)Cc1cc(C(C)(C)CC(C)(C)C)cc(c1O)Cc1cc(C(C)(C)CC(C)(C)C)cc(c1O)Cc1cc(C(C)(C)CC(C)(C)C)cc(c1O)Cc1cc(C(C)(C)CC(C)(C)C)cc(c1O)Cc1cc(C(C)(C)CC(C)(C)C)cc(c1O)C2 | inactive: > 100 µM
47 | COc1cccc2c1C(=O)c1c(O)c3c(c(O)c1C2=O)C[C@@](O)(C(C)O)C[C@@H]3OC1CC(N)C(O)C(C)O1 (stereo partly drawn) | inactive: 4.81 µM
48 | O/N=C1/CCC/C1=C\c1ccccc1 | inactive: > 100 µM
49 | CCCCCCCCCCOC1C(C(O)CNCCCN(C)C)OC2OC3(CCCCC3)OC21 (stereo not drawn) | inactive: 5.15 µM
50 | COC(=O)C1CCC(=O)N1C(c1cc(OC)c(OC)c(OC)c1)c1cc(OC)c(OC)c(OC)c1 (stereo not drawn) | inactive: > 100 µM
51 | CC1=NN=C(N)N/C1=C\C(Sc1ccc(Cl)cc1)c1ccc([N+](=O)[O-])cc1 (stereo not drawn) | inactive: > 100 µM
52 | COc1cc(Nc2cnc3cc(N)ccc3n2)cc(OC)c1OC | inactive: > 100 µM
53 | COc1ccc2oc(-c3cc4cc(OC)ccc4o3)cc2c1 | inactive: > 100 µM
54 | CCc1c(-c2ccccc2)[nH]c2ccccc2c1=O | inactive: > 100 µM
55 | O=C(O)C1CCCCN1C(=O)Cc1c[nH]c2ccccc12 (stereo not drawn) | inactive: > 100 µM
56 | O=c1c2cc([N+](=O)[O-])ccc2n2n1Cc1ccccc1C2 | inactive: > 100 µM
57 | Cc1cc2c(C)nn(Cc3ccccc3)c2c(C(=O)O)c1C | inactive: > 100 µM
58 | CC(C)(C)c1ccc(C(O)c2ccc(C(C)(C)C)cc2)cc1 | inactive: 18.5 µM
59 | Cc1cc(C)nc(NS(=O)(=O)c2ccc(NC(=O)c3c4ccccc4nc4ccccc34)cc2)n1 | inactive: > 100 µM
60 | [Se]=P(c1ccccc1)(c1ccccc1)c1ccc(C(c2ccccc2)=P(c2ccccc2)(c2ccccc2)c2ccccc2)cc1 | inactive: 2.52 µM
61 | O=C1NC(=S)NC(=O)C1=Cc1cc2c(cc1[N+](=O)[O-])OCO2 | inactive: > 100 µM
62 | CCCCCCCCCC[C@H](O)[C@H]1CC[C@@H]([C@@H](O)CC[C@H](O)[C@@H]2CCC(CCCCCCC[C@@H](O)CC3=C[C@H](C)OC3=O)O2)O1 (stereo partly drawn) | inactive: 2.41 µM
63 | CC(=O)Nc1ccc2[nH]c(C(=O)N3CC(CCl)c4c3cc([N+](=O)[O-])c3ccccc43)cc2c1 (stereo not drawn) | inactive: 4.31 µM
64 | CC1=C(C(=O)Nc2cc(F)c(F)cc2F)C(c2ccc(N(C)C)cc2)C(C(=O)Nc2cc(F)c(F)cc2F)=C(C)N1 | inactive: 28.8 µM
65 | Cc1ccc(/N=N/c2ccc(O)c(CN(C)C)c2)cc1 | inactive: 33.7 µM
66 | O=C1c2cc3c(cc2CC12Cc1ccc4c(c1C2=O)CCC4)CCC3 (stereo not drawn) | inactive: > 100 µM

Row | SMILES | GI50
67 | CCOC(=O)CC1=N/C(=N/c2cc(Cl)ccc2Cl)SC1 | inactive: > 100 µM
68 | COc1ccccc1N1CCN(CCCN2C(C(=O)c3ccccc3)=C(O)c3c(C)cc(C)nc3S2(=O)=O)CC1 | inactive: > 100 µM
69 | CC1OC(O)CC(N(C)C)C1O.CC1OC(O)CCC1O.CCC1CC(O)c2c(O)c3c(c(O)c2C1O)C(=O)c1cccc(O)c1C3=O (stereo not drawn) | active: 0.0266 µM
70 | O=C1NCCS(=O)(=O)N2CCC[C@@H]12 | inactive: > 100 µM
71 | COc1ccc(C=O)c(N(C)C(=O)C(C)(C)C)c1 | inactive: > 100 µM
72 | Cc1ccc(NCC2(/N=C/c3ccccc3)OC(CO)C(O)C2O)cc1 (stereo not drawn) | inactive: > 100 µM
73 | C=CC1(C)CCC2C(=CCC3C(C)(COC4OC(C(=O)O)C(O)C(O)C4O)C(O)CCC23C)C1.C=CC1(C)CCC2C(=CCC3C2(C)CC(O)C(O)C3(C)COC2OC(C(=O)O)C(O)C(O)C2O)C1 (stereo not drawn) | inactive: > 100 µM
74 | CCOC(=O)c1ccc(Nc2nc3ccccc3nc2-c2cccs2)cc1 | inactive: > 100 µM
75 | C#CCN(Cc1ccc2nc(OC)c(OC)nc2c1)c1cc(OC)c(OC)c(OC)c1 | inactive: 34.1 µM
76 | CN1CCCC2[C@@H]3CCC4c5nonc5CC[C@]4(C)C3CC[C@@]21C (stereo partly drawn) | inactive: > 100 µM
77 | CCCc1cc(O)c2c(C)c3[nH]c4ccc(Cl)cc4c3c(C)c2n1 | inactive: 16.8 µM
78 | COC(=O)C[C@H](COCc1ccccc1)NC(=O)C[C@H](COCc1ccccc1)NC(=O)C[C@H](COCc1ccccc1)NC(=O)OC(C)(C)C | inactive: 21.9 µM
79 | O=S(=O)(O)c1ccc2c(/N=N\c3cccc4ccccc34)c(O)c(S(=O)(=O)O)cc2c1 | inactive: > 100 µM
80 | CN(C)[C@@H]1C(O)=C(C(=O)NCNCCCC(=O)O)C(=O)[C@@]2(O)C(O)=C3C(=O)c4c(O)cccc4[C@@](C)(O)[C@H]3C[C@@H]12 | inactive: > 100 µM
81 | CC(=O)N[C@@H]1C(O)CN2C(=O)C(=O)O[C@H](C(O)CO)[C@@H]12 (stereo partly drawn) | inactive: > 100 µM
82 | O=C(Oc1cccc(Cl)c1)c1cc2cc(CCl)ccc2oc1=O | inactive: 20.5 µM
83 | Nc1cc2c(c3ccccc13)C(CCl)CN2C(=O)c1cc2cc(NC(=O)c3cc4ccccc4o3)ccc2[nH]1 (stereo not drawn) | active: 0.0167 µM
84 | COc1cc2c(/C=C3/C(=O)Nc4ccccc43)c(Cl)[nH]c2cc1C | active: 0.0857 µM
85 | OCC1OC(n2cnc3c2NC=NC[C@H]3O)CC1O (stereo partly drawn) | inactive: > 500 µM
86 | CN(C)CCSc1cc(-c2ccccc2)c2ccccc2n1 | inactive: 18.4 µM
87 | N#C/C(=C\c1ccc2[nH]ccc2c1)C(=O)c1ccc(O)c(O)c1 | inactive: 88.1 µM
88 | O=c1c2ccccc2sc2ccccc12 | inactive: > 100 µM

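How tested: cells in 96-well plates exposed to compound for 48 hours at five concentrations. Here, GI50 denotes the concentration required for 50% inhibition of growth.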 Calls of active or inactive are those of the source. Rule as the data show it: active = GI50 up to about 1.1 µM and inactive = higher.
